First the molecules themselves.
B1: LINE1-mini (parent)
chain: GGCAGAGCUCAACACAGCGUGGCAAAGUGGCUGUGGCUAGACUGCC

The values that follow come from the RNAGym collection of RNA variant scans (doi:10.7554/elife.90254).

The source gives no read counts; variants with many changes may rest on few reads.

In the series the parent is B1. Description: self-cleavage, relative activity (ratio to wild type); higher = more cleavage; in vitro, sequencing; the parent is a self-cleaving ribozyme.
For the variant A25U G27U U32A A39C C45A, the self-cleavage turned out to be 0.08.

Regarding G5A C10A A11G C37U, the self-cleavage came out at 0.02.

On to A12G A14U A26C, for which the self-cleavage was determined as 0.02.

Regarding G30A G33A A41C C46G, the self-cleavage came to 0.1.

In the case of A4U A16C G21A A26C U28C, the self-cleavage came to 0.04.

Turning to A16G U38A C45G, the self-cleavage was 0.03.

In the case of G5U C15A G21C A39G, the self-cleavage was 0.03.

With G7A C31G A39U, the self-cleavage was 0.52.

Turning to C23U G27A C46G, the self-cleavage stood at 0.97.

A11U U38G C42G: the self-cleavage was found to be 0.

Turning to C13G G21C A24C G29U U43C, the self-cleavage is 0.09.

As for G2C G19U G29U, the self-cleavage stood at 0.16.

Regarding A4U A11C U34G G36A U38G, the self-cleavage stood at 0.02.

G5U G21A G44A: the self-cleavage worked out at 0.25.

In the case of C8U U9A G17U, the self-cleavage amounted to 0.05.

For G7A C13U A26C, the self-cleavage came to 0.3.

Regarding C3A A26U C37G A39G, the self-cleavage worked out at 0.21.

For the variant G2A A12U G19C A24U, the self-cleavage amounted to 0.13.

With U9A C31G C37A, the self-cleavage was found to be 0.03.

On to G1U A6G G19U C31G G40A, for which the self-cleavage came out at 0.01.

With G17A G21A A24U C31A C42U G44U, the self-cleavage was 0.07.

With U9A C23U C45A, the self-cleavage was found to be 0.11.

A11U U34A A39U G44C: the self-cleavage came to 0.01.

Take A6U U20C A25C G33A: the self-cleavage was 0.03.

Turning to A11C A16U G35C U43G, the self-cleavage amounted to 0.

With G17A C18U G33U C37A, the self-cleavage was 0.18.

Regarding C10U C15U C46A, the self-cleavage came out at 0.17.

As to A4C G5U G7C C42G, the self-cleavage turned out to be 0.6.

Take G1U C13G G29C: the self-cleavage was 0.02.

As for U32C C42A C45U, the self-cleavage came out at 0.04.

For A4C A11U A12C A25C, the self-cleavage was 0.01.

Take C3U G22U C37A U38G: the self-cleavage was 0.02.

With C3A C10U G17C C31G A39C, the self-cleavage came to 0.02.

Regarding C3G A12U G30U, the self-cleavage worked out at 0.04.

Regarding G17C U20G A24U C45A, the self-cleavage was 0.06.

For G7U G30U G40A, the self-cleavage stood at 0.47.

With A14C G21U A39G C45G, the self-cleavage came out at 0.03.

As to U20G C23U G27A G33C, the self-cleavage is 0.1.

Turning to G1C G17U G30A C37A G40U U43C, the self-cleavage worked out at 0.01.

Consider G7U U9A A14G G27C C45U, for which the self-cleavage came to 0.01.

Regarding C18A G35C A41G C42G, the self-cleavage is 0.06.

Consider G2A A25U G30A G40C, for which the self-cleavage was determined as 0.15.

In the case of G5C G30A G40C, the self-cleavage was 0.07.

Take A4C A11U G17A C23A A39U: the self-cleavage came to 0.01.

With G27U G30A C31A G33A, the self-cleavage came to 0.02.

As for G2C C10G C15A G21C A25U U32A U34G G40U, the self-cleavage stood at 0.01.

Turning to A4U A6G C23U A26U, the self-cleavage came to 0.1.

For G27U U32G A41C C45G, the self-cleavage stood at 0.1.

In the case of G7C C13U U32C C42A, the self-cleavage was determined as 0.02.

Turning to G1A C8U A16G, the self-cleavage was determined as 0.14.

On to A12G G35U G36A, for which the self-cleavage amounted to 0.1.

G7A C10G G40A: the self-cleavage is 0.03.

C8U A12C C15A A24U C42U G44C: the self-cleavage came to 0.03.

For the variant U20G C31G U38C G40A, the self-cleavage was 0.01.

For the variant A16G A24G C46A, the self-cleavage amounted to 0.38.

Consider C15G G22A C45U, for which the self-cleavage was found to be 0.04.

In the case of C3U A4C G19A G33U G35A, the self-cleavage came out at 0.1.

In the case of A16U A39C G40C C45A, the self-cleavage was 0.

Regarding A6U A14C G21A G29U G33C U43C, the self-cleavage was 0.03.

For C15A G27U G35C U38C, the self-cleavage stood at 0.

Consider A16G G19C U20A C31U U43C, for which the self-cleavage amounted to 0.01.

As to G27A G30C U43C, the self-cleavage was 0.06.

For the variant C13U C18A U28A C42A, the self-cleavage is 0.17.

Consider C13U U28C U34G, for which the self-cleavage came to 0.01.

Take C13G C15U G36C: the self-cleavage was 0.03.

C13A G21U G40U: the self-cleavage was determined as 0.18.

With C8A G17A U20G, the self-cleavage was 0.09.

Consider A24C G33C U38A, for which the self-cleavage was 0.02.

On to C3G A4G G36C, for which the self-cleavage was found to be 0.18.

For C3A A14G G22U A26C, the self-cleavage was determined as 0.46.

Turning to A24C A39C G44A, the self-cleavage came out at 0.05.

As for C10G C13A C23A G27C C31A, the self-cleavage was determined as 0.08.

As to A14C A16G G17C U20A U32A U38C, the self-cleavage worked out at 0.02.

For the variant A4G C13A A16C C23A A25G G30A, the self-cleavage amounted to 0.04.

As for A16C G19A G27A C31A U43A, the self-cleavage was determined as 0.07.

As to A4C G5A A12C C15A C23U G33U, the self-cleavage was 0.03.

With A16C C18A G30C C42G, the self-cleavage is 0.02.

Regarding G5U U20A C23G A25U G27C C37U G40U, the self-cleavage came to 0.01.

For the variant G2C C18U C31A, the self-cleavage came out at 0.04.

For A24C G33C G36A A41G C45U, the self-cleavage was found to be 0.09.

Consider G7A G19C A24G U34A A39C, for which the self-cleavage amounted to 0.03.

As for U28A G30U C31A C46U, the self-cleavage came to 0.45.

As for G19C G35U G36U, the self-cleavage was found to be 0.3.

On to A6C U34C G35A, for which the self-cleavage amounted to 0.09.

As for G2U G7C C15A, the self-cleavage was found to be 0.02.

In the case of C10A A11U C18U, the self-cleavage was found to be 0.03.

Consider G7U G22C G29C, for which the self-cleavage worked out at 0.03.

Consider G1U C37U G44C, for which the self-cleavage turned out to be 0.06.

Regarding G5U U9A C31U, the self-cleavage stood at 0.09.

As to C10U A14U U20A A24U C31G, the self-cleavage came to 0.01.

Consider C10G C13A U32G, for which the self-cleavage was found to be 0.01.

As for C15G U38C C42A G44A, the self-cleavage was found to be 0.

Regarding G7A G17U C18G C42G, the self-cleavage was determined as 0.18.

As to A12C G19A A24C U34A, the self-cleavage came out at 0.01.

On to C3G A11U U28G U32A U34A A41G, for which the self-cleavage came to 0.01.

On to C8G G27U C37U A39U C45G, for which the self-cleavage worked out at 0.01.

In the case of C10A A26C G29U, the self-cleavage was 0.04.

For G7U U20A A39G C46U, the self-cleavage stood at 0.02.

For A26G U32C C45A, the self-cleavage stood at 0.02.

In the case of C8A C18A G22C C31A, the self-cleavage was found to be 0.44.

In the case of C3A C13G G21U, the self-cleavage was determined as 0.17.

With C3U A4C A16C G30U C46U, the self-cleavage stood at 0.05.

As to C13U G22U C23U A24C C46A, the self-cleavage was 0.36.

As for C8A U9C C10U C23A G29U G35A A39U, the self-cleavage was determined as 0.04.

As to C8G G19C G40U, the self-cleavage came to 0.05.

With A4G A12G G22U G40U, the self-cleavage was 0.22.

For the variant C10U G17C G19A C31A C46U, the self-cleavage is 0.3.

G2U C3G U32A G44U: the self-cleavage was 0.07.

In the case of G1C C42G G44C, the self-cleavage came to 0.

In the case of A16U G36C G40A C46A, the self-cleavage was 0.05.

In the case of C3A A14G A26U C45G, the self-cleavage worked out at 0.44.

For C23G G36C C46A, the self-cleavage was 0.07.

Regarding A16G G17C C37U U38G C45U, the self-cleavage stood at 0.

For the variant U9A C15G U20A G44A, the self-cleavage came to 0.3.

Take G1U C8G C13U: the self-cleavage is 0.14.

Turning to C10A A12C U20A G44U, the self-cleavage was found to be 0.01.

For A6U C8U A12G A26G, the self-cleavage is 0.06.

As for G22C A25G A41C C46A, the self-cleavage was found to be 0.06.

As to A12U G30A C37A U38A, the self-cleavage was determined as 0.04.

Regarding C8A A12U A16U G36U, the self-cleavage turned out to be 0.04.

Consider C3G C8U C10A G29C, for which the self-cleavage is 0.01.

Regarding G5U C8U G22A G35U G44U, the self-cleavage came out at 0.13.

Take G7U G27C A41U: the self-cleavage stood at 0.06.

For C13U A25C G27C U38A A39U C46G, the self-cleavage was 0.02.

For U9A C23G G33C U34A, the self-cleavage came out at 0.27.

On to G7U C15A G29U, for which the self-cleavage was 0.1.

C3A C31A U32C C46U: the self-cleavage turned out to be 0.12.

For the variant G17C A24C C42U, the self-cleavage stood at 0.04.

With G19A G27U G33U C45U, the self-cleavage turned out to be 0.06.

For G2C C10U G27C, the self-cleavage came out at 0.

Regarding U9G C10A U28C G33C, the self-cleavage came out at 0.02.

Take A6U C10A C42U: the self-cleavage turned out to be 0.02.

Turning to C10G A12U C37U, the self-cleavage stood at 0.02.

With G27A G33A U43C, the self-cleavage came out at 0.06.

Turning to C10G A24G G36A A41G, the self-cleavage is 0.01.

Take G5A U9G G22U C23A: the self-cleavage is 0.08.

On to U20C C23G G40C, for which the self-cleavage worked out at 0.06.

For C23U A24G U32C G40A C46U, the self-cleavage is 0.02.

Take G7C U32G U38A: the self-cleavage came out at 0.34.

Take G21U G33U G36C C46U: the self-cleavage was 0.07.

As to U20C G21U G33A, the self-cleavage came out at 1.18.

G21A G29C G35A G44U: the self-cleavage came out at 0.15.

Consider G7A G40U G44U, for which the self-cleavage was found to be 0.23.

In the case of C3U A6C A12C C15G C42G, the self-cleavage came out at 0.04.

Turning to G7A A12G A25G G30A, the self-cleavage turned out to be 0.03.

Take G1U G22A G40C C46U: the self-cleavage is 0.05.

On to C15A A25G G44A, for which the self-cleavage stood at 0.12.

Take G2A A6U A14C: the self-cleavage was determined as 0.06.

Consider A4C C8A U28G U34C G36C, for which the self-cleavage stood at 0.04.

G21C G27A G35A: the self-cleavage was determined as 0.14.

A14U G17C C31G U32G G36A: the self-cleavage was determined as 0.

For the variant C15U G17A G36U U43G, the self-cleavage came out at 0.

In the case of G1U A24G C45A, the self-cleavage is 0.15.

Regarding C15A G36U U38G, the self-cleavage was 0.08.

In the case of C10A C23A A41U U43A, the self-cleavage came out at 0.

Turning to C13U G19C U34C U38C C45G, the self-cleavage came out at 0.09.

As for G1A C8U C23U G35U G40C, the self-cleavage was determined as 0.13.

Consider G1A C8G A14U A26C C37U, for which the self-cleavage was 0.09.

In the case of G1U U9G U20A A25G A39G U43C C45A, the self-cleavage is 0.01.

For the variant C10G C15A A24G, the self-cleavage amounted to 0.02.

In the case of C3U G27U C42A, the self-cleavage worked out at 0.21.

G19U C23U C37G G40C: the self-cleavage turned out to be 0.02.

As for G5C C18U U32C C37U, the self-cleavage worked out at 0.05.

Regarding C10A A12G C42G, the self-cleavage turned out to be 0.03.

For G7A U32A G35C, the self-cleavage turned out to be 0.34.

As for A4C A14C C31U, the self-cleavage was 0.05.

Turning to G33A U43C C45U, the self-cleavage turned out to be 0.12.
